Source: a compilation of properties of binary mixtures (doi:10.1016/j.fluid.2020.112621)
Some of these densities may be calculated back from excess volumes.

Experiment: xn = mol fraction of the nth substance listed
Details: 101 kPa

CCC(=O)O.CCC(=O)[O-].CC[NH+](CC)CCO + CCCC[n+]1ccn(C)c1.COP(=O)([O-])OC
mass density [kg/m3]
Details | x1 = 0.08 | x1 = 0.1549 | x1 = 0.2364 | x1 = 0.3281 | x1 = 0.4183 | x1 = 0.4953 | x1 = 0.6252 | x1 = 0.7416 | x1 = 0.8667 | x1 = 1
278.15 K | – | 1139.8 | 1125.4 | 1110.6 | 1098.4 | 1089.1 | 1076 | 1061 | 1047 | 1034
283.15 K | 1152.8 | 1135.8 | – | 1106.4 | 1094.1 | – | – | – | 1043 | 1030
288.15 K | 1149.2 | 1132.1 | 1117.6 | 1102.5 | 1090.2 | 1080.8 | – | 1053 | 1039 | 1026
293.15 K | 1145.8 | 1128.3 | 1113.9 | – | 1086.1 | 1076.7 | 1064 | 1049 | – | 1022
298.15 K | 1142.4 | 1124.5 | 1110.2 | 1094.9 | 1082.1 | 1072.6 | 1060 | – | 1031 | –
303.15 K | – | 1120.8 | – | 1091.1 | – | 1068.6 | 1056 | 1041 | – | 1014
308.15 K | 1135.5 | 1117 | 1103.1 | 1087.1 | – | 1064.6 | 1052 | 1036 | – | 1010
313.15 K | 1132.4 | 1113.3 | 1099.3 | – | 1070.2 | – | 1048 | 1032 | 1018 | 1006
318.15 K | 1128.7 | 1109.7 | 1095.9 | 1079.5 | 1066.3 | 1056.5 | – | 1028 | 1014 | 1002
323.15 K | 1125.3 | 1106.1 | – | 1075.7 | 1062.4 | – | 1040 | 1024 | 1010 | 998
328.15 K | 1122 | 1102.5 | – | 1072 | 1058.5 | 1048.5 | 1035 | – | – | 994
333.15 K | 1118.6 | 1099.4 | 1085.1 | 1068.3 | 1054.6 | – | 1031 | 1016 | – | –
338.15 K | – | 1095.6 | – | 1064.8 | 1050.8 | 1040.6 | – | – | 997 | 986
343.15 K | 1112 | 1092.1 | 1078.1 | 1061.1 | 1047.1 | – | 1023 | 1008 | 993 | 982
348.15 K | 1108.7 | – | 1074.6 | 1057.4 | – | 1032.9 | – | 1003 | – | 978
353.15 K | 1105.4 | – | 1070.8 | 1053.7 | – | 1028.9 | 1015 | 999 | 985 | 973
358.15 K | 1102.2 | 1081.8 | 1067.3 | 1050.1 | – | – | – | 995 | 980 | 969
363.15 K | 1098.9 | 1078.5 | 1063.8 | 1046.4 | 1031.7 | 1020.9 | 1007 | – | 976 | –
368.15 K | – | – | 1060.4 | 1042.6 | 1028.1 | 1016.9 | 1003 | – | 972 | 960
373.15 K | 1092.4 | 1071.7 | 1057.1 | 1039.1 | 1024 | 1013 | 999 | – | 967 | –

CC(=O)[O-].CCCC[NH2+]CCO + CCCC[n+]1ccn(C)c1.O=S(=O)([N-]S(=O)(=O)C(F)(F)F)C(F)(F)F
mass density [kg/m3]
Details | x1 = 0.1012 | x1 = 0.2257 | x1 = 0.3002 | x1 = 0.423 | x1 = 0.4998 | x1 = 0.6018 | x1 = 0.6987 | x1 = 0.8008 | x1 = 0.901 | x1 = 1
278.15 K | – | – | – | – | – | – | – | – | – | 1028.6
283.15 K | – | 1387.2 | 1362.8 | 1320.8 | 1291.7 | 1249 | 1204.6 | – | 1091.9 | –
288.15 K | – | 1382.6 | – | 1316.3 | 1287.2 | 1244.7 | 1200.5 | – | 1088.3 | 1021.7
293.15 K | – | 1378 | 1354.7 | 1311.9 | 1282.9 | 1240.5 | 1196.4 | 1143.5 | 1084.7 | 1018.3
298.15 K | – | – | 1350.4 | 1307.5 | 1278.6 | 1236.3 | 1192.2 | – | – | –
303.15 K | – | 1368.8 | 1345.9 | 1303.1 | – | 1232.1 | 1188.2 | – | 1077.2 | 1011.2
308.15 K | 1399 | 1364.2 | – | 1298.7 | 1270 | 1227.9 | 1184.1 | 1131.6 | 1073.4 | –
313.15 K | 1395 | 1359.5 | 1336.9 | 1294.3 | – | 1223.8 | – | – | – | –
318.15 K | 1390.7 | – | 1332.3 | 1289.9 | 1261.4 | 1219.6 | – | 1123.9 | – | 1000.4
323.15 K | 1386.1 | 1350.3 | 1327.7 | 1285.5 | 1257 | 1215.4 | – | 1120 | 1062.2 | 997.1
328.15 K | 1381.5 | – | 1323.2 | 1281 | 1252.6 | – | 1167.9 | 1116.1 | – | 993.4
333.15 K | 1376.8 | 1341 | 1318.6 | 1276.5 | 1248.2 | 1206.9 | 1163.8 | 1112.1 | 1054.7 | 989.8
338.15 K | 1372.1 | 1336.3 | 1313.9 | 1272.1 | 1243.8 | 1202.5 | – | 1108.1 | 1050.9 | 986.1
343.15 K | 1367.4 | – | 1309.3 | 1267.6 | – | 1198.2 | 1155.4 | 1104.1 | – | –
348.15 K | 1362.7 | 1327 | 1304.7 | – | 1234.9 | 1194 | 1151.2 | 1100 | 1043.1 | 978.7
353.15 K | 1358 | 1322.3 | 1300.1 | 1258.5 | 1230.4 | 1189.6 | 1146.9 | 1095.9 | – | –
358.15 K | 1353.3 | 1317.6 | – | – | – | 1185.3 | 1142.7 | 1091.8 | 1035.2 | 971
363.15 K | 1348.6 | 1312.9 | 1290.8 | – | 1221.4 | 1180.9 | 1138.4 | 1087.6 | 1031.1 | –
368.15 K | 1343.9 | 1308.3 | 1286.1 | 1244.8 | 1216.9 | 1176.4 | 1134 | – | 1027.1 | –
373.15 K | 1339.3 | 1303.6 | – | – | – | 1172 | 1129.7 | 1079.2 | 1023 | –
